B1: tRNA (parent)
chain: CUCUCGGUAGCCAAGUUGGUUUAAGGCGCAAGACUUUAAUUUAUCACUACGAAAUCUUGAGAUCGGGCGUUCGACUCGCCCCCGGGAGAUUUUUUCCUCGAGCAA

Variants at the floor of the assay are shown more often than the library holds them.

This data set covers variants of B1. Description: nonsense suppression (GFP-seq) (ratio to wild type); higher = more function; SUP4oc tRNA, yeast GFP reporter sort-seq. Put shortly: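 Raffinose/galactose medium with 80 mg/L adenine was used to grow yeast carrying genome-integrated tRNA variants (~3% random-mutation library), RFP, and a galactose-driven GFP ochre reporter. Cells went into GFP/RFP bins, which were Illumina-sequenced, and variants with ≥100 reads and ≥30 cells were scored. Nonsense suppression (GFPSEQ) is the per-bin median GFP/RFP weighted by estimated cell share and expressed relative to the unmutated parent tRNA.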
Consider A9G C27A A33C, for which the nonsense suppression is no more than 0.026.
Next, C3A A31U: no more than 0.026; C12A U63G: no more than 0.026.
Next, U17C G85C: no more than 0.026; C3U U21C U55G: no more than 0.026.
Next, U22G G78C: 0.0318; G18U G32U A33G: no more than 0.026; C11A U35G C64U G73A: no more than 0.026.
On to G32U C56U C83G, for which the nonsense suppression is no more than 0.026.
With U21G C29G the figure was no more than 0.026.
With C12A A74G the figure was no more than 0.026; with G7C G10U A62U, no more than 0.026; with C27U C56U, no more than 0.026.
Consider G69C G78C, for which the nonsense suppression is no more than 0.026.
For G67A C82U, the nonsense suppression is no more than 0.026.
With U4C G66C the figure was no more than 0.026; with G25U A60C G78A, no more than 0.026; with G18C C29G, no more than 0.026.
Next, G28A U76G: no more than 0.026; A13G A30C G78U: no more than 0.026.
With A23C G32A G85A the figure was no more than 0.026; with U55G G85A, no more than 0.026.
As to A13G U17C U70A C82A C83G, the nonsense suppression was no more than 0.026.
For G10U C34G A74G, the nonsense suppression was no more than 0.026.
With C29A A31C A33C G86U the figure was no more than 0.026; with U20G G26A G84C, no more than 0.026.
With U4A C64U U70A A74G the figure was no more than 0.026; with U20A C29U U58C G66A, no more than 0.026; with C29U U70C G78C, no more than 0.026.
With U16C C34G the figure was no more than 0.026; with A13U A24U, 0.863.
G26U A54G U55A G78U: the nonsense suppression was no more than 0.026.
With U76A G88U, the nonsense suppression is no more than 0.026.
Next, G19U U22G C29U C79A C81A: no more than 0.026; A89G: no more than 0.026; U35G G65C G85C: no more than 0.026.
Next, C34U U57A G66A: no more than 0.026.
With C34U G73C the figure was no more than 0.026; with A33U C77G, no more than 0.026; with A24G C27U, no more than 0.026.
Regarding A24C U71A G78C C80A A87U, the nonsense suppression is no more than 0.026.
For U55A C79G, the nonsense suppression was no more than 0.026.
With G65C U71C the figure was no more than 0.026; with A62G C79U, no more than 0.026.
With A23U U58A the figure was no more than 0.026; with U58G U63A, no more than 0.026.
Next, U17G U55G C64G U70A A74C: no more than 0.026; A14U G73U G84C: no more than 0.026; G15C G69C: no more than 0.026.
Take G25C G88A: the nonsense suppression is no more than 0.026.
Consider G7A G66A A89G, for which the nonsense suppression was no more than 0.026.
With A9C U35A the figure was no more than 0.026; with A13C A23C A30U C34U G67C, no more than 0.026; with U2A U4G, 0.203.
On to G15A U57G, for which the nonsense suppression is no more than 0.026.
Next, G15U A24C A60C: no more than 0.026.
With G7A G15U G69C C79G the figure was no more than 0.026; with A33G A87U G88U, no more than 0.026; with C12U U63A, 0.697.
Next, U8A U16G C34A: no more than 0.026.
For A60G C64G, the nonsense suppression was no more than 0.026.
Next, U2A G19C G85U: no more than 0.026; G6U G10U G28A A33U U70C: no more than 0.026; A13G A31C C75U C81U: no more than 0.026.
As for U17A A24U G25U G32C G73A A89G, the nonsense suppression is no more than 0.026.
Next, A33U U55G G61A: no more than 0.026.
With U16A U21G the figure was 0.752.
As for C11A G26A G28U, the nonsense suppression was no more than 0.026.
Next, U8G G25C U57C G69A: no more than 0.026; G61A C75U: 0.923.
Next, G25C U70G: no more than 0.026; U8A G32A U71C: no more than 0.026; G59U G61U G85U: no more than 0.026.
Consider C27U G65C, for which the nonsense suppression was no more than 0.026.
With C11U U57A G88C the figure was no more than 0.026; with G18U C56A, no more than 0.026.
With G10A U16G A23G G28U A33U the figure was no more than 0.026; with G28C G78C, no more than 0.026; with C34A G67A A87U, no more than 0.026.
With C1A U2A G7U A31C the figure was no more than 0.026; with G7U A14G G15U G18U C34A A60U C75U, no more than 0.026; with C27G G28C G67A C83A A87C, no more than 0.026.
Take G7C G59C G86C: the nonsense suppression is no more than 0.026.
Next, C1U C3A U22C C72G A89C: no more than 0.026; G6C U17G G69A U71G: no more than 0.026.
Next, G66C G78C: no more than 0.026; A31C C72G G78U: no more than 0.026; G7C G15C: no more than 0.026.
Next, C3G C5G: no more than 0.026.
In the case of U8A C34A G86A, the nonsense suppression is no more than 0.026.
Next, A23G A62C C72A C80G: no more than 0.026; U57C U76A: no more than 0.026; C1A C3U U17A C27G G59U: no more than 0.026.
Next, A9G U71C G78A: no more than 0.026.
In the case of U20G C83A A89C, the nonsense suppression was no more than 0.026.
As to U8G C75G G85C, the nonsense suppression was no more than 0.026.
With U8C A60U C82G G88U the figure was no more than 0.026; with C5G U16C C27A U55A, no more than 0.026.
Regarding A9G C29U A31U U35C C77G, the nonsense suppression was no more than 0.026.
With U21A G73U G86A the figure was no more than 0.026.
Take U2G G25U: the nonsense suppression is no more than 0.026.
For the variant G7A C11U C56U, the nonsense suppression was no more than 0.026.
Next, C1U A9U A13C C64U: no more than 0.026; C3G A14U A33U G73U C75A C80A: no more than 0.026; C56U U63A C81G G84C A87U: no more than 0.026.
Next, G15C A30U: no more than 0.026; C3A G78A G86C A87G: no more than 0.026.
Next, U58G A60U: no more than 0.026; U21G A33C U76C: no more than 0.026; A9C A13C G78C: no more than 0.026.
For C11G U16G U63G, the nonsense suppression was no more than 0.026.
With G10A C11U G26U the figure was no more than 0.026; with A31U G85A, 0.164.
With G61A G69U U76G G85A the figure was no more than 0.026; with C12U U35G, no more than 0.026.
Next, G6A A9G G32A C34G G66A G85U: no more than 0.026; C5A U55G G66C: no more than 0.026; G18C G26U U55G G69U: no more than 0.026.
Consider U35A G61C C64A, for which the nonsense suppression was no more than 0.026.
For the variant U22C C68A U70A, the nonsense suppression is no more than 0.026.
With A62G C64U G67U the figure was no more than 0.026; with U20A U35G A62C G67A, no more than 0.026; with A13U U55C C56U G85C, no more than 0.026.
With A9C A23U G59U G78U C82G the figure was no more than 0.026; with U63A G66C G86U, no more than 0.026.
With U16C U22A A31C the figure was no more than 0.026; with A30C C77A, no more than 0.026; with C1G G7C A54G, no more than 0.026.
Take G28C A33G G65A U70C: the nonsense suppression is no more than 0.026.
With U16C A30G U35G U70A, the nonsense suppression was no more than 0.026.
With C12G A14U, the nonsense suppression is no more than 0.026.
As for A30G G65C, the nonsense suppression is no more than 0.026.
With G19U G59A G86C the figure was no more than 0.026.
Next, G32C U35A A54C C75U A87U: no more than 0.026.
Next, U4C A13U A54U C81G: no more than 0.026.
Regarding C1U G86A, the nonsense suppression was no more than 0.026.
Next, G73C C75U: no more than 0.026; C12U G19A G26C U57G: no more than 0.026.
With A9C C27U U55G C77U C79U the figure was no more than 0.026; with A23U A33G G67A C81U G85C, no more than 0.026.
Next, U2G G19U C72U: no more than 0.026; A9C G86U: no more than 0.026.
On to A23U G65A G67C C72G G73U, for which the nonsense suppression is no more than 0.026.
With U2C A33G A74G G86U the figure was no more than 0.026; with U20A G73U, no more than 0.026; with G61A, 0.853.
Turning to A14U A62U C79G A87G, the nonsense suppression was no more than 0.026.
Regarding G28C C77G G85A, the nonsense suppression is no more than 0.026.
As for G6A U76A, the nonsense suppression is no more than 0.026.
With U20C G59C, the nonsense suppression was no more than 0.026.
With C11G A24U A60C the figure was no more than 0.026; with C11U U20A U22C A62U G65U A89C, no more than 0.026.
For A9U A33U C82A, the nonsense suppression is no more than 0.026.
With G15U C81G the figure was no more than 0.026; with G6U G28C, no more than 0.026.
Next, C3G G19U A33C C72A G73U: no more than 0.026; A24G C34U G67C U76A: no more than 0.026; A74G G85U: no more than 0.026.
In the case of U4A U8A A23U G69U, the nonsense suppression was no more than 0.026.
With G18U G28C C80G A87G the figure was no more than 0.026.
Next, U17C U63C: 1.18; U63C C81U: 0.142.
C1G C12G A13G U17A U57C: the nonsense suppression was no more than 0.026.
With U4A A24G A54G G67C the figure was no more than 0.026; with C3A G18U, no more than 0.026.
Next, C5G G73U G86A: no more than 0.026.
Next, G67A G69A G88U: no more than 0.026.
